We go through 81 molecules from ChEMBL document CHEMBL1201862, “PubChem BioAssay data set” (2004).

Each structure is given as a SMILES string.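 Exposure lasted 48 hours, with cells grown in 96-well plates and compounds tested at five concentrations. GI50: concentration for 50% inhibition of growth.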 Calls of active or inactive are those of the source. No stated cut-off is given here; in the data, active = GI50 up to about 1.1 µM and inactive = higher.

In this assay the test system is NCI-H322M. Description: NCI-60 cell line screen, 48 h.
In the case of `O=Cc1ccc(Oc2c3ccccc3nc3ccccc23)cc1`, the GI50 was inactive: 12.6 µM.

Consider `Cc1c(CNc2ccc(Cl)c(C(=O)NC(CC(=O)O)C(=O)O)c2)ccc2nc(N)nc(N)c12` (stereo unspecified), for which the GI50 is active: 0.466 µM.

In the case of `CCCCc1c2c(nc3c1CCC/C3=C\c1ccccc1)C(=O)C(CN(C)C)CC2` (stereo unspecified), the GI50 was inactive: 10.9 µM.

Turning to `COC(=O)/C=C\C(C#N)(C#N)/N=C/c1sccc1C`, the GI50 is inactive: 17.3 µM.

With `C/C(CCn1[nH]c(=O)ccc1=O)=N\O`, the GI50 is inactive: > 100 µM.

On to `CSc1nc(=O)c2nc(-c3cccs3)c(-c3cccs3)nc2n1C`, for which the GI50 is inactive: 48.5 µM.

With `COc1ccccc1NC(=S)N/N=C/c1c(C)n(C)n(-c2ccccc2)c1=O`, the GI50 was inactive: > 100 µM.

Regarding `COc1cc(Br)c(C2OCCCO2)cc1OCc1ccccc1`, the GI50 is inactive: 64.6 µM.

Regarding `COC(=O)/C(=N/NC(N)=O)C(C(=O)C(=O)Nc1ccc(C)cc1)c1nc2ccc(C(=O)c3ccccc3)cc2nc1O` (stereo unspecified), the GI50 is inactive: > 100 µM.

In the case of `COC(=O)NN1C(=O)C(=P(c2ccccc2)(c2ccccc2)c2ccccc2)C(C(=O)OC)=C1C`, the GI50 was inactive: > 100 µM.

Consider `CSc1c(C#N)c(=O)[nH]c2[nH]nc(C)c12`, for which the GI50 is inactive: > 100 µM.

For `O=C1Nc2ccccc2C12CCCC2`, the GI50 was inactive: > 100 µM.

With `CCCCCCCCCCCCCCCCOCC(COP(=O)([O-])OCC[N+](C)(C)C)OCCCCCCCCCCCCCCCC` (stereo unspecified), the GI50 is inactive: > 100 µM.

With `CC1(C)CCCCCCCCCC(C)(CCCCCCCCCCCCO)C1=O` (stereo unspecified), the GI50 was inactive: 18 µM.

As to `CCC(NC(C)c1ccccc1)C(=O)c1ccc(OCc2ccccc2)c(OCc2ccccc2)c1` (stereo unspecified), the GI50 was inactive: > 100 µM.

On to `CCOC(=O)C1CC(C(=O)c2ccccc2)N2c3ccccc3-c3ccccc3C12` (stereo unspecified), for which the GI50 is inactive: > 100 µM.

In the case of `COc1ccc(/C=c2/sc3n(c2=O)NC2(CCC(C)CC2)NN=3)cc1` (stereo unspecified), the GI50 is inactive: > 100 µM.

Consider `c1ccc2[nH]c(CNc3ccc(C4C[Se]N=N4)cc3)nc2c1` (stereo unspecified), for which the GI50 is inactive: 35.5 µM.

With `O=C(O)c1cc(=O)c2[nH]c3ccccc3c2s1`, the GI50 was inactive: > 100 µM.

As to `O=C(CCCN1CCC2(CC1)/C(=N/C1CCCCC1)NC(=O)N2c1ccccc1)c1ccc(F)cc1`, the GI50 was inactive: 21.1 µM.

On to `CSC1=N/C(=C\c2ccc(C)cc2)C(=O)N1`, for which the GI50 is inactive: > 100 µM.

Regarding `CCCOP(=S)(N1CC1)N1CC1`, the GI50 was inactive: > 100 µM.

As to `CCC(CC)(CO)CNc1cc(Cl)nc(N)n1`, the GI50 was inactive: > 100 µM.

As to `CC(C)=CC(=O)CC(=O)C(=O)NCCNC(=O)C(=O)CC(=O)C=C(C)C`, the GI50 is inactive: > 50 µM.

Take `C=CCSC1=N/C(=C\c2cccs2)C(=O)N1CC=C`: the GI50 is inactive: 48.9 µM.

On to `NC(CCc1ncc(-c2ccccc2)s1)C(=O)O` (stereo unspecified), for which the GI50 was inactive: > 100 µM.

`O=C(Nc1ccc(Cl)cc1C(F)(F)F)C(=O)C1CCCS1(=O)=O` (stereo unspecified): the GI50 was inactive: > 100 µM.

For `COc1cc2c(cc1C)[n+]([O-])c(C)c(C(=O)C/C(=N/NC(=O)C[N+](C)(C)C)C(=O)Nc1cccc(Cl)c1C)[n+]2[O-]`, the GI50 was inactive: > 100 µM.

Regarding `O=C1c2cc([N+](=O)[O-])cnc2S(=O)(=O)N1c1ccc(Oc2ccccc2)cc1`, the GI50 is inactive: > 100 µM.

As for `O=C1NN=CN2C(=O)CCC12` (stereo unspecified), the GI50 is inactive: > 100 µM.

In the case of `CCN(CC)CCNc1ccc(C)c2sc3ccc(O)cc3c(=O)c12`, the GI50 was inactive: 2.64 µM.

As for `CCOC(=O)C(=Cc1[nH]c2ccccc2c1-c1c[nH]c2ccccc12)C(=O)OCC`, the GI50 was inactive: 16.5 µM.

With `CCOC(=O)c1sc2nc(SC)nc3c2c1N=CN3c1ccc(Br)cc1`, the GI50 is inactive: > 100 µM.

With `O=C(COc1ccc(Cl)cc1)N1CCN(C(=O)COc2ccc(Cl)cc2)c2ccccc21`, the GI50 was inactive: > 100 µM.

As for `NS(=O)(=O)c1ccc(N2C(=O)C(=O)N(c3ccccc3)C2=S)cc1`, the GI50 was inactive: > 100 µM.

In the case of `N#CC1(C=O)c2ccccc2C=CN1C(=O)c1ccccc1` (stereo unspecified), the GI50 was inactive: 70.5 µM.

As to `CCOC(=O)C1(N)CC1`, the GI50 was inactive: > 100 µM.

Regarding `CC(=O)OC1COC(n2ccc3cc(Br)c([N+](=O)[O-])cc32)C(OC(C)=O)C1OC(C)=O` (stereo unspecified), the GI50 was inactive: 38.7 µM.

In the case of `CC(=O)OCCn1cnc2c(NCC=C(C)C)ncnc21`, the GI50 was inactive: > 100 µM.

For `COc1cc(/C=C2\N=C(c3ccccc3)N(c3cc4cc(Sc5ccccc5)ccc4[nH]3)C2=O)cc(OC)c1OC`, the GI50 was inactive: 20.6 µM.

Take `CC1(c2ccc(Cl)cc2)CC(c2ccc(Cl)cc2)=C(C#N)C(=C(C#N)C#N)N1` (stereo unspecified): the GI50 was inactive: 14.8 µM.

Regarding `O=c1c2ncn(C3CCCO3)c2n(-c2ccccc2)c(=S)n1-c1ccccc1` (stereo unspecified), the GI50 is inactive: > 100 µM.

Take `CC(=O)NC(CCCCN(Cc1ccccc1)C(=O)N(CCCl)N=O)C(=O)NCc1ccccc1` (stereo unspecified): the GI50 is inactive: 57.9 µM.

As to `Nc1c(Br)cc2c(c1Br)Cc1cc(Br)ccc1-2`, the GI50 is inactive: > 100 µM.

On to `CCCOP1(=O)C=CC(Cl)=C(C)C1` (stereo unspecified), for which the GI50 was inactive: > 100 µM.

With `CCOC(=O)c1nc2ccccc2nc1Oc1ccc(C#N)cc1`, the GI50 was inactive: > 100 µM.

As for `O=C(NO)c1ccc(OCc2ccccc2)cc1`, the GI50 was inactive: 22.8 µM.

Turning to `Cc1ccc2nc(CN3CCCC(O)C3)cc(=O)n2c1` (stereo unspecified), the GI50 was inactive: > 100 µM.

Regarding `CCC(=S)N(C)O`, the GI50 is inactive: 32.8 µM.

For `COc1cccc2c(SCC(=O)Nc3ccccc3-c3ccccc3NC(=O)CSc3c4ccccc4nc4c(OC)cccc34)c3ccccc3nc12`, the GI50 was inactive: > 100 µM.

Consider `CSc1c(C#N)c(N)nc2c(/N=N\c3ccc(Br)cc3)c(N)nn12`, for which the GI50 was inactive: 6.78 µM.

For `Cc1c2ccccc2c(C2C3C(=O)N(c4cccc5ccccc45)C(=O)C3ON2Cc2ccc(CC(N)=O)cc2)c2ccccc12` (stereo unspecified), the GI50 is inactive: 20.4 µM.

Take `COc1ccc(/C=c2/[nH]c(=O)/c(=C\c3ccc(OCc4ccccc4)cn3)[nH]c2=O)cc1`: the GI50 was inactive: 48.5 µM.

For `O=C(c1ccccc1)N1C(=S)N(c2ccc([N+](=O)[O-])cc2)C(=N/c2ccccc2)/C1=N\c1ccccc1`, the GI50 is inactive: > 100 µM.

In the case of `CC1CCC2c3c([nH]c4ccccc34)C3C(=O)N(c4ccccc4)C(=O)C3C2C1` (stereo unspecified), the GI50 was inactive: > 250 µM.

For `CCc1n[nH]c(=O)n1NC(=O)CCCC(=O)O`, the GI50 was inactive: > 100 µM.

For `CCC/C(=N/NC(=O)C(N)=O)C(CC)C(=O)CCC(=O)N(Cc1ccccc1)Cc1ccccc1` (stereo unspecified), the GI50 was inactive: > 100 µM.

Take `COc1ccc(C#CCC(OC2OC(CO)C(O)C(O)C2O)C(O)c2ccc(OC)c(OC)c2)cc1OC` (stereo unspecified): the GI50 was inactive: > 100 µM.

As to `CC(Cl)CC(=O)OCC1CCCN2CCCCC12` (stereo unspecified), the GI50 is inactive: > 100 µM.

As to `O=C1N=C(S)NNC12c1ccccc1-c1ccccc12`, the GI50 is inactive: > 10 µM.

On to `CC(C)(C)OC(=O)N1CCCC1=O`, for which the GI50 was inactive: > 10 µM.

For the molecule `CC(=O)CCn1c(=S)sc2ccccc21`, the GI50 is inactive: > 100 µM.

Take `CCOC(=O)C(CS)NC(=O)CCCCCCCC(=O)O` (stereo unspecified): the GI50 was inactive: > 100 µM.

Consider `N#Cc1nc(C(F)(F)F)oc1N`, for which the GI50 is inactive: > 100 µM.

As to `O=c1[nH]c(=O)n(C2CC(O)C(COP(=O)(O)OC3CC(n4cc(F)c(=O)[nH]c4=O)OC3COP(=O)(O)OC3CC(n4cc(F)c(=O)[nH]c4=O)OC3COP(=O)(O)OC3CC(n4cc(F)c(=O)[nH]c4=O)OC3COP(=O)(O)OC3CC(n4cc(F)c(=O)[nH]c4=O)OC3COP(=O)(O)OC3CC(n4cc(F)c(=O)[nH]c4=O)OC3COP(=O)(O)OC3CC(n4cc(F)c(=O)[nH]c4=O)OC3COP(=O)(O)OC3CC(n4cc(F)c(=O)[nH]c4=O)OC3COP(=O)(O)OC3CC(n4cc(F)c(=O)[nH]c4=O)OC3COP(=O)(O)OC3CC(n4cc(F)c(=O)[nH]c4=O)OC3CO)O2)cc1F` (stereo unspecified), the GI50 is active: 0.172 µM.

As to `CCOc1nc(-c2ccccc2)cc(-c2ccc(N3CCOCC3)cc2)c1C#N`, the GI50 is inactive: > 100 µM.

On to `CCOP(=O)(OCC)/C(C#N)=C/c1cnc[nH]1`, for which the GI50 is inactive: > 100 µM.

Take `CCOC(=O)/C(=N/Nc1ccc(C)cc1)N1C(=S)N(C)N=C(C)C=C1S`: the GI50 is inactive: > 100 µM.

On to `CCOC(=O)C(CNc1ccc(O)cc1)NC(=O)c1ccccc1` (stereo unspecified), for which the GI50 is inactive: > 100 µM.

Take `C/N=C(/NC)N(C)c1nc(=[N+](C)C)ss1.[O-][Cl+3]([O-])([O-])[O-]`: the GI50 was inactive: > 100 µM.

Regarding `O=C(O)CN1C(=O)C(Cc2ccc(O)cc2)N=C(c2cccc(O)c2)c2ccccc21` (stereo unspecified), the GI50 is inactive: > 100 µM.

In the case of `COC(=O)C1(C(=O)OC)N=C(C)OC1C(C)C` (stereo unspecified), the GI50 was inactive: > 100 µM.

On to `CC1(C)Oc2ccc3c(=O)cc(-c4cccs4)oc3c2C1C(=O)O` (stereo unspecified), for which the GI50 was inactive: > 100 µM.

As for `CCCC(C)C[C@@H](C)CC(C)/C=C(\C)c1oc(=O)c(C)c(O)c1C.CC[C@@H](C)C[C@@H](C)C[C@@H](C)/C=C(\C)c1oc(=O)c(C)c(O)c1C` (stereo partly specified), the GI50 was inactive: 16.3 µM.

In the case of `CC(C)=CCC/C(C)=C/C=C/C(C)=C/C=C/C(C)=C/C=C/C=C(C)/C=C/C=C(C)/C=C/[C@H]1C(C(C)(C)O)CC[C@]1(C)O` (stereo partly specified), the GI50 was inactive: 52.4 µM.

With `COc1cc2cc(C(=O)N3CC(COS(C)(=O)=O)c4c3cc(N)c3ccccc43)[nH]c2c(OC)c1OC` (stereo unspecified), the GI50 was active: < 0.0331 µM.

Consider `COc1cccc(-c2cc(O)c3cc(NC(C)=O)ccc3n2)c1`, for which the GI50 was inactive: 5.26 µM.

As to `O=C(/C=C/c1ccc(Cl)cc1)Oc1ccc(/C=C2\CCCCC2=O)cc1`, the GI50 is inactive: > 100 µM.

For `O=C1C=CC(=O)c2c(Cl)ccc(O)c21`, the GI50 was inactive: 28.6 µM.

Turning to `CN(Cc1cnc2nc(N)nc(N)c2n1)c1ccc(C(=O)NC(CCC(=O)O)C(=O)O)cc1` (stereo unspecified), the GI50 is active: 0.114 µM.

Consider `[O-]c1c2c(nn1-c1ccc(Cl)cc1)c1ccccc1c[n+]2Cc1ccccc1`, for which the GI50 was inactive: > 100 µM.
